The labels stand for the following.
B1: CPEB3 Ribozyme (parent)
chain: UAACAGGGGGCCACAGCAGAAGCGUUCACGUCGCAGCCCCUGUCAGAUUCUGGUGAAUCUGCGAAUUCUGCUGUAUAUCUC

Read counts are not given, so values of variants with three or more changes are uncertain.

The data set covers variants of B1. In words: self-cleavage, relative activity (ratio to wild type); higher = more cleavage; in vitro, sequencing. The procedure, abridged: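 Libraries of CPEB3 self-cleaving ribozyme mutants came from rounds of error-prone PCR and carried barcodes, which DNA sequencing matched to variants. In vitro transcription used T7 RNA polymerase at 37°C for 5 hours, with a further 15 min in DNase I before EDTA stopped the reaction; the ribozymes cleaved during both steps. The RNA was reverse transcribed with template switching and sequenced on Illumina. Relative activity is the cleaved/total read fraction of a variant divided by that of the unmutated ribozyme, averaged over three batches with at least 5 reads.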
Turning to UAACAGGGGGCCACAGCAGAAGCGUUCACGUCGCAGCCCCUGUCAGAUACUGGCGAAUCUGUGAAUUCUGCUGUAUAUCCC, the self-cleavage is 0.15.

As for UAACAGGGGGCCACAGCAGAAGCGUUCACGUCGCAGCCCCUGUCAGAUACUGGUGAAUCUGCGGAUUCUGCUGUAUACCUC, the self-cleavage worked out at 0.36.

As for UAACAGGGGGCCACAGCAGAAGCGUUCACGUCGCAGCCCCUGUCAGAUCCUGGUGAAUCUGCGAGUUCUGCUGUAGAUCUC, the self-cleavage is 0.12.

UAACAGGGGGCCACAGCAGAAGCGUUCACGUCGCAGCCCCUGUCAGAUACUGGUGAAUCUGCCAAUCCUGCUGUAUACCUC: the self-cleavage turned out to be 0.5.

UAACAGGGGGCCACAGCAGAAGCGUUCACGUCGCAGCCCCUGUCAGAUCCUGGUGGAUCUGCGGAUUCUGCUGUAUAUCUC: the self-cleavage is 1.06.

Consider UAACAGGGGGCCACAGCAGAAGCGUUCACGUCGCAGCCCCUGUCAGAUACUGGUGAAUCCGCGAAUUUAGCUGCAUAUCUC, for which the self-cleavage was determined as 0.27.

As to UAACAGGGGGCCACAGCAGAAGCGUUCACGUCGCAGCCCCUGUCAGAUACUGGUGAAUCUGCGAGUUCUGCUGUACAUCUC, the self-cleavage is 0.25.

As to UAACAGGGGGCCACAGCAGAAGCGUUCACGUCGCAGCCCCUGUCAGAGUCUGGUGAGUCUGCGAAUUCUGCGGUAUAUCCC, the self-cleavage was found to be 0.77.

UAACAGGGGGCCACAGCAGAAGCGUUCACGUCGCAGCCCCUGUCAGAUACUGGUGAAUCUACGAGUUCUGCUGUAUAUCUC: the self-cleavage amounted to 0.22.

UAACAGGGGGCCACAGCAGAAGCGUUCACGUCGCAGCCCCUGUCAGAUACUGGUGAAUCUGCGAAUUCUGCUGUUUACCUC: the self-cleavage amounted to 0.8.

Take UAACAGGGGGCCACAGCAGAAGCGUUCACGUCGCAGCCCCUGUCAGAUACUGGUGUAUCCGCGAAUCCUGCCGUAUAUCCC: the self-cleavage turned out to be 0.19.

UAACAGGGGGCCACAGCAGAAGCGUUCACGUCGCAGCCCCUGUCAGAUCCUGGUGAAUCUGCGGAUCCUGCUGUAUAUCUC: the self-cleavage came out at 0.13.

Consider UAACAGGGGGCCACAGCAGAAGCGUUCACGUCGCAGCCCCUGUCAGAGUCUGGUGAAUCUGCGAAUUCUGCUGCAAAUCUC, for which the self-cleavage stood at 1.05.

As for UAACAGGGGGCCACAGCAGAAGCGUUCACGUCGCAGCCCCUGUCAGAUCCUAGUGCAUCUGCGAAUUCUGCUGUAUACCUC, the self-cleavage is 0.55.

For UAACAGGGGGCCACAGCAGAAGCGUUCACGUCGCAGCCCCUGUCAGAUACUGGUGAAUCUGCGGAUUCUGCUGCAUAUCUU, the self-cleavage worked out at 0.83.

In the case of UAACAGGGGGCCACAGCAGAAGCGUUCACGUCGCAGCCCCUGUCAGAUCCUGGUGUAUCUGCGAAUCCUGCUGUAUAUCUC, the self-cleavage came out at 0.12.

For UAACAGGGGGCCACAGCAGAAGCGUUCACGUCGCAGCCCCUGUCAGAUCCUGGUGAGUCUGCGAAUUCUGCCGUAUACCUC, the self-cleavage is 0.27.

As for UAACAGGGGGCCACAGCAGAAGCGUUCACGUCGCAGCCCCUGUCAGAUACUGGUGGACCUGCGAAUUCCGCUGUACAUCUC, the self-cleavage is 0.14.

On to UAACAGGGGGCCACAGCAGAAGCGUUCACGUCGCAGCCCCUGUCAGAUCCUGGUGUAUCUGCGAAUCCUGCCGUAUAUCUC, for which the self-cleavage amounted to 0.15.

For UAACAGGGGGCCACAGCAGAAGCGUUCACGUCGCAGCCCCUGUCAGAUACUGGGGAAUCCGCGAAUUCUGCUGUAUAUCUC, the self-cleavage is 0.11.

UAACAGGGGGCCACAGCAGAAGCGUUCACGUCGCAGCCCCUGUCAGAUACUGGUGAACCUGCGAAUACUGCUGUAUAUCUC: the self-cleavage was determined as 0.09.

For the variant UAACAGGGGGCCACAGCAGAAGCGUUCACGUCGCAGCCCCUGUCAGAUCCUGGUGCAUCUGCGAAUUCUGCUGUGUAUCUC, the self-cleavage was determined as 0.51.

Turning to UAACAGGGGGCCACAGCAGAAGCGUUCACGUCGCAGCCCCUGUCAGAUACUCGUGAAUCUGCGAAUUCAGCUGUAUAUCUC, the self-cleavage came to 0.42.

Take UAACAGGGGGCCACAGCAGAAGCGUUCACGUCGCAGCCCCUGUCAGAUCCUGGUGGAUCUGCGAGUUCCGCUGUAUAUCUC: the self-cleavage stood at 0.12.

Turning to UAACAGGGGGCCACAGCAGAAGCGUUCACGUCGCAGCCCCUGUCAGAUCCUGGUGGAUCUGCGAAUUCAGCUGUAUAUCUC, the self-cleavage is 0.65.

With UAACAGGGGGCCACAGCAGAAGCGUUCACGUCGCAGCCCCUGUCAGAUACCGGUGAAUCUGCGAAUUCAGCUGUAUAUCUC, the self-cleavage was 0.4.

In the case of UAACAGGGGGCCACAGCAGAAGCGUUCACGUCGCAGCCCCUGUCAGAUCCUGGUGAGUCUGUGAAUUCUGCUGUACGUCUC, the self-cleavage is 0.06.

On to UAACAGGGGGCCACAGCAGAAGCGUUCACGUCGCAGCCCCUGUCAGAUCCAGGUGAAUCUGCGAGUUCUGCCGUAUAUCUC, for which the self-cleavage worked out at 0.22.

As to UAACAGGGGGCCACAGCAGAAGCGUUCACGUCGCAGCCCCUGUCAGAUACUGGUGAAUAUGCGAAUUCCGCAGUAUAUCUC, the self-cleavage is 0.13.

On to UAACAGGGGGCCACAGCAGAAGCGUUCACGUCGCAGCCCCUGUCAGAUACUGGUGAAUCUGCGAAUUCCGCUGUAUAUCCC, for which the self-cleavage was found to be 0.45.

UAACAGGGGGCCACAGCAGAAGCGUUCACGUCGCAGCCCCUGUCAGAUACUGGUGAAUCCGCGAGAUCUGCUGUAUAUCUC: the self-cleavage is 0.2.

UAACAGGGGGCCACAGCAGAAGCGUUCACGUCGCAGCCCCUGUCAGAUACUGGUGAAACUGCGAGUUCUGAUGUAUAUCUC: the self-cleavage amounted to 0.13.

For the variant UAACAGGGGGCCACAGCAGAAGCGUUCACGUCGCAGCCCCUGUCAGAUACAGGUGAAUCCGCGAAUUCUGCUGUAUAUCUC, the self-cleavage was 0.2.

With UAACAGGGGGCCACAGCAGAAGCGUUCACGUCGCAGCCCCUGUCAGAUCCUUGUGAAUCUGCGAAUUCUGCUGUAUAUCAC, the self-cleavage stood at 0.83.

As for UAACAGGGGGCCACAGCAGAAGCGUUCACGUCGCAGCCCCUGUCAGAUACUGGUGAAUCUGCGAAUUCCGCUGCAUAUCCC, the self-cleavage stood at 0.32.

As for UAACAGGGGGCCACAGCAGAAGCGUUCACGUCGCAGCCCCUGUCAGAUACCGGUGGAUCUGCGAAUUCUGCUGUAUAUCUC, the self-cleavage came out at 0.82.

UAACAGGGGGCCACAGCAGAAGCGUUCACGUCGCAGCCCCUGUCAGAUACUGGCGAAUCUGCGAAUUCCGCUGUAUAUCUC: the self-cleavage is 0.18.

Turning to UAACAGGGGGCCACAGCAGAAGCGUUCACGUCGCAGCCCCUGUCAGAUCCUGGUGAGUCUGCGAAUUCUGCCGUAUAUCUC, the self-cleavage was 0.37.

Consider UAACAGGGGGCCACAGCAGAAGCGUUCACGUCGCAGCCCCUGUCAGAUCCUGGUGGAUCUGCGAACUCUGCCGUAUAUCUC, for which the self-cleavage was 0.36.

On to UAACAGGGGGCCACAGCAGAAGCGUUCACGUCGCAGCCCCUGUCAGAUACUGGUGAAUCUGCGAAUUCUUCAGUAUAUCUC, for which the self-cleavage came out at 0.1.

On to UAACAGGGGGCCACAGCAGAAGCGUUCACGUCGCAGCCCCUGUCAGAUCCUGGUGAAUCUGCGGACUCUGCCGUAUAUCUC, for which the self-cleavage is 0.13.

UAACAGGGGGCCACAGCAGAAGCGUUCACGUCGCAGCCCCUGUCAGAUCCUGGUGAGUCUGCGGAUUCUGCCGUAUAUCUC: the self-cleavage was found to be 0.12.

For UAACAGGGGGCCACAGCAGAAGCGUUCACGUCGCAGCCCCUGUCAGAUCCUGGUGAAUCUGCGAAUUCUACUGCAUAUCUC, the self-cleavage came out at 0.19.

With UAACAGGGGGCCACAGCAGAAGCGUUCACGUCGCAGCCCCUGUCAGAUCCUGCUGAAUCUGCGAAUUCUGCUGUAAGUCUC, the self-cleavage was 0.38.

On to UAACAGGGGGCCACAGCAGAAGCGUUCACGUCGCAGCCCCUGUCAGAUCCUGAUGUAUCUGCGAAUUCCGCUGUAUAUCUC, for which the self-cleavage was 0.1.

In the case of UAACAGGGGGCCACAGCAGAAGCGUUCACGUCGCAGCCCCUGUCAGAUACUGGUGAAUCUGCGUAAUCUGCUGUAUAUCUC, the self-cleavage was 0.18.

For UAACAGGGGGCCACAGCAGAAGCGUUCACGUCGCAGCCCCUGUCAGAUACUGGUGAAUCUGCGAAUUCUGCUGGAUAGCUC, the self-cleavage stood at 1.22.

Regarding UAACAGGGGGCCACAGCAGAAGCGUUCACGUCGCAGCCCCUGUCAGAUCCAGGUGAAUGUGCGAAUUCUGCUGUAUAUCUC, the self-cleavage stood at 0.17.

In the case of UAACAGGGGGCCACAGCAGAAGCGUUCACGUCGCAGCCCCUGUCAGAUCCAGGUGAAUAUGCGAAUUCUGCUGUAUAUCUC, the self-cleavage stood at 0.21.

Take UAACAGGGGGCCACAGCAGAAGCGUUCACGUCGCAGCCCCUGUCAGAUCCUGGUGAGUCUGCGAACUCUGCUGUAUAUCUC: the self-cleavage was 0.11.

As to UAACAGGGGGCCACAGCAGAAGCGUUCACGUCGCAGCCCCUGUCAGAUACUGGUGAAUCUGCGAAUUCUCCUGUAUACCUC, the self-cleavage amounted to 0.21.

As to UAACAGGGGGCCACAGCAGAAGCGUUCACGUCGCAGCCCCUGUCAGAUCCUGGUGAAUCUGCAAAUUCUGCUGUAUACCUC, the self-cleavage worked out at 0.17.

As to UAACAGGGGGCCACAGCAGAAGCGUUCACGUCGCAGCCCCUGUCAGAGUCUGGUGAAUCUGCGAAUUCUGCCGUAUGUCUC, the self-cleavage is 0.25.

For the variant UAACAGGGGGCCACAGCAGAAGCGUUCACGUCGCAGCCCCUGUCAGAUACUGGUGAAUCUGCGAAUCCCGCUGUAUAUCUC, the self-cleavage came out at 0.19.

Take UAACAGGGGGCCACAGCAGAAGCGUUCACGUCGCAGCCCCUGUCAGAUCCUGGUGGAUCUGCGAAUUCUGCCGUAUAUCUC: the self-cleavage worked out at 1.3.

For the variant UAACAGGGGGCCACAGCAGAAGCGUUCACGUCGCAGCCCCUGUCAGAGUCUGGUGAAUCUGCGAAUCCUGCUGUAUACCUC, the self-cleavage stood at 0.4.

For the variant UAACAGGGGGCCACAGCAGAAGCGUUCACGUCGCAGCCCCUGUCAGAUACUGGUGAAUCUGCGUAUUCCGCUGUAUACCUC, the self-cleavage worked out at 0.42.

In the case of UAACAGGGGGCCACAGCAGAAGCGUUCACGUCGCAGCCCCUGUCAGAUACUGACGAAUCUGCGAAUUCUGCAGUAUAUCUC, the self-cleavage turned out to be 0.4.

For UAACAGGGGGCCACAGCAGAAGCGUUCACGUCGCAGCCCCUGUCAGAUACUGGUGAACCUGCGGAUUCUGCUGUAUAUCUC, the self-cleavage was found to be 0.32.

With UAACAGGGGGCCACAGCAGAAGCGUUCACGUCGCAGCCCCUGUCAGAUACUGGUGAAUCCGCGAAAUCUGCUGUAUAUCUC, the self-cleavage came to 0.14.

Consider UAACAGGGGGCCACAGCAGAAGCGUUCACGUCGCAGCCCCUGUCAGAUCCUGGUGAGUCUGCGAAUUCUCCCGUAUAUCUC, for which the self-cleavage stood at 0.15.

For the variant UAACAGGGGGCCACAGCAGAAGCGUUCACGUCGCAGCCCCUGUCAGAUCCUGAUGAGUCUGCGAAUUCCGCUGUAUAUCUC, the self-cleavage came out at 0.13.

Turning to UAACAGGGGGCCACAGCAGAAGCGUUCACGUCGCAGCCCCUGUCAGAUACUGGUGAUUCUGCGAAUUCUGCUGUAUAACUC, the self-cleavage stood at 0.46.

As for UAACAGGGGGCCACAGCAGAAGCGUUCACGUCGCAGCCCCUGUCAGAUCCAGGUGAAUCUGCGAAUUCUGCUGUCUAUCUC, the self-cleavage is 0.72.

Consider UAACAGGGGGCCACAGCAGAAGCGUUCACGUCGCAGCCCCUGUCAGAUCCUGGUGAUUCUGCGAACUCUGCUGGAUAUCUC, for which the self-cleavage was 0.06.

Turning to UAACAGGGGGCCACAGCAGAAGCGUUCACGUCGCAGCCCCUGUCAGAUCCUGGUGAGACUGCGAAUUCUGCUGUAUAUCUC, the self-cleavage was 0.44.

With UAACAGGGGGCCACAGCAGAAGCGUUCACGUCGCAGCCCCUGUCAGAUCCAGGUGAAUCUGCGAAUUCUGCAGUUUUUCUC, the self-cleavage came to 0.4.

Regarding UAACAGGGGGCCACAGCAGAAGCGUUCACGUCGCAGCCCCUGUCAGAUACUGGUGAAUCUGCGUGUUCUGCUGUAUACCUC, the self-cleavage came to 0.14.

The record behind these values is the RNAGym collection of RNA variant scans (doi:10.1093/nar/gkz1192).
